These results are taken from the supplement of paper PMC9446081.

Each structure is given as a SMILES string. Out of some 39,000 compounds screened, about 220 (0.56%) showed activity. The list shows a part of the results.
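Also: static incubation at 37 °C against the wild-type strain, values averaged over two biological replicates.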

In the assay the test system is Escherichia coli K-12 BW25113. Briefly: relative growth (OD600 normalised to plate interquartile mean) (fraction); higher = less growth inhibition, active = 0.2 or less. The conditions noted are these: 50 µM; LB; incubation time: overnight (16-24 h).
As to `COc1ccc(NC(=O)Nc2ccc3c(c2)C(=O)N([C@H](C)CO)C[C@@H](C)[C@@H](CN(C)Cc2ccc(C(=O)O)cc2)OCCCC[C@H](C)O3)cc1`, the relative growth is inactive: 0.953.
With `Cc1noc(C)c1S(=O)(=O)Nc1cccc2c1O[C@@H](CN(C)S(C)(=O)=O)[C@@H](C)CN([C@@H](C)CO)C2=O` the figure was inactive: 0.98; with `NC[C@@H](c1cccnc1)S(=O)(=O)c1ccc(Cl)cc1`, inactive: 1.02; with `COc1ccc(S(=O)(=O)N(C)C[C@@H]2Oc3c(NC(=O)Nc4cccc5ccccc45)cccc3C(=O)N([C@@H](C)CO)C[C@H]2C)cc1`, inactive: 1.
With `CCN1C(=O)[C@@H]2CN(C(C)=O)C[C@@H]2C12CCN(C(=O)COC)CC2` the figure was inactive: 1.01; with `C[C@H]1CN([C@@H](C)CO)C(=O)c2cccc(NC(=O)C3CC3)c2O[C@H]1CN(C)S(=O)(=O)c1cn(C)cn1`, inactive: 0.999; with `COc1ccc(NC(=O)N(C)C[C@H]2OCCCC[C@@H](C)Oc3ccc(NS(=O)(=O)c4ccc(F)cc4)cc3C(=O)N([C@@H](C)CO)C[C@H]2C)cc1`, inactive: 1.03.
With `CN(CC(=O)Nc1ccccc1)S(C)(=O)=O` the figure was inactive: 0.999; with `COc1cccc(S(=O)(=O)N(C)C[C@@H]2Oc3ncc(-c4cccc(C(=O)N(C)C)c4)cc3C(=O)N([C@H](C)CO)C[C@@H]2C)c1`, inactive: 0.977; with `C=CC[C@H](CC(=O)N(CCO)Cc1ccccc1)C(=O)N[C@@H](COC(=O)[C@H](CC=C)CC(=O)OC(C)(C)C)Cc1c[nH]c2ccccc12`, inactive: 1.08.
Regarding `C[C@@H]1CN([C@@H](C)CO)C(=O)c2cccc(NC(=O)C3CC3)c2O[C@@H]1CN(C)S(=O)(=O)c1ccccc1`, the relative growth is inactive: 0.998.
Then `C[C@H]1CCCCO[C@@H](CN(C)Cc2ccc(C(=O)O)cc2)[C@@H](C)CN([C@@H](C)CO)C(=O)c2cc(NS(=O)(=O)c3ccccc3)ccc2O1`, with inactive: 0.998; and `C[C@H]1CN([C@@H](C)CO)C(=O)c2cc(NC(=O)Cn3cnnn3)ccc2O[C@@H]1CN(C)Cc1ccc(-c2ccccc2)cc1`, with inactive: 0.918; and `Cc1noc(C)c1S(=O)(=O)Nc1ccc2c(c1)CC(=O)N([C@H](C)CO)C[C@@H](C)[C@H](CN(C)Cc1ccc(Oc3ccccc3)cc1)O2`, with inactive: 1.01.
Then `CNC(=O)C[C@H]1CC[C@H]2[C@@H](COC[C@H](O)CN2C(=O)Nc2ccc3c(c2)OCO3)O1`, with inactive: 1.01; and `C[C@@H]1CN([C@@H](C)CO)C(=O)c2cc(NC(=O)Cc3ccccc3)ccc2O[C@@H](C)CCCCO[C@H]1CN(C)C(=O)c1ccccc1`, with inactive: 0.995.
Consider `O=C(C[C@@H]1C=C[C@@H](NS(=O)(=O)c2ccccc2F)[C@@H](CO)O1)NCCCN1CCOCC1`, for which the relative growth is inactive: 0.987.
Then `C[C@H](CO)N1C[C@H](C)[C@H](CN(C)Cc2ccc(C(=O)O)cc2)OCCCC[C@H](C)Oc2ccc(NC(=O)NC3CCCCC3)cc2C1=O`, with inactive: 0.981; and `C[C@@H]1CN([C@@H](C)CO)C(=O)c2cccc(NC(=O)CCCCCC(=O)Nc3ccccc3N)c2O[C@@H]1CN(C)C(=O)Nc1ccccc1`, with inactive: 0.99.
With `CCCC#Cc1cnc2c(c1)C(=O)N([C@H](C)CO)C[C@H](C)[C@@H](CN(C)C(=O)c1ccc3c(c1)OCO3)O2` the figure was inactive: 0.968.
Turning to `NCCCCCc1cnc[nH]1`, the relative growth was inactive: 0.984.
As for `C[C@@H]1CN([C@@H](C)CO)C(=O)c2cc(NC(=O)Nc3ccc(C(F)(F)F)cc3)ccc2O[C@@H]1CN(C)CC1CCCCC1`, the relative growth was inactive: 0.968.
With `C[C@H]1CN([C@@H](C)CO)C(=O)Cc2cc(NC(=O)Cn3cnnn3)ccc2O[C@H]1CN(C)C(=O)Nc1ccc2c(c1)OCO2` the figure was inactive: 0.983; with `CCOC(=O)C[C@H]1CCCNC1`, inactive: 1.02.
With `OC[C@@H](O)[C@@H](O)[C@@H](O)[C@@H](O)[C@@H](O)CO` the figure was inactive: 1; with `C[C@@H]1CCCCO[C@@H](CN(C)C(=O)c2ccncc2)[C@@H](C)CN([C@H](C)CO)C(=O)c2cc(NC(=O)NC3CCCCC3)ccc2O1`, inactive: 0.957.
For the compound `C[C@@H]1CN([C@@H](C)CO)C(=O)c2cc(NS(C)(=O)=O)ccc2O[C@H]1CN(C)C(=O)Nc1ccc2c(c1)OCO2`, the relative growth is inactive: 0.975.
Then `C[C@@H]1CN([C@H](C)CO)C(=O)c2cc(NC(=O)NC3CCCCC3)ccc2O[C@@H](C)CCCCO[C@H]1CN(C)S(=O)(=O)c1ccc(F)cc1`, with inactive: 1.02; and `COc1cc2nc(N3CCCN(Cc4ccccc4)CC3)nc(Nc3ccc(F)c(Cl)c3)c2cc1OC`, with inactive: 1.02; and `C[C@@H]1CCCCO[C@@H](CN(C)C(=O)Nc2cccc3ccccc23)[C@H](C)CN([C@H](C)CO)C(=O)c2cc(NC(=O)C3CCCCC3)ccc2O1`, with inactive: 1.03.
Then `Cc1ccc(S(=O)(=O)N(C)C[C@H]2OCCCC[C@@H](C)Oc3ccc(NC(=O)Nc4ccc5c(c4)OCO5)cc3C(=O)N([C@@H](C)CO)C[C@H]2C)cc1`, with inactive: 1.03.
Then `C[C@@H]1CN([C@H](C)CO)C(=O)c2cccc(NC(=O)c3ccc(-c4nccs4)cc3)c2O[C@H]1CN(C)Cc1ccc(Cl)c(Cl)c1`, with inactive: 1.03; and `Cn1nnc2c(C(N)=O)ncn2c1=O`, with inactive: 1.06; and `COc1ccc(CCNC(=O)[C@@H]2c3ccccc3C(=O)N(CC34CC5CC(CC(C5)C3)C4)[C@H]2c2ccc(CO)cc2)cc1`, with inactive: 1.
As for `COc1ccccc1NC(=O)N(C)C[C@H]1Oc2cc(Br)ccc2S(=O)(=O)N([C@H](C)CO)C[C@H]1C`, the relative growth is inactive: 1.04.
With `C[C@H](CO)N1C[C@H](C)[C@@H](CN(C)C(=O)c2ccncc2)OCCCC[C@H](C)Oc2ccc(NS(=O)(=O)c3cn(C)cn3)cc2C1=O` the figure was inactive: 0.973; with `O=C1C=CC(=O)N1c1ccc(O)cc1`, inactive: 0.881; with `C[C@H](CO)N1C[C@H](C)[C@H](CN(C)Cc2ccc(F)cc2)OCc2ccccc2-c2c(n(C)c3ccccc23)C1=O`, inactive: 1.01.
For `C[N+](C)(C)CCCCNC(=O)[C@H]1C[C@H]2C(=O)N[C@@H](CCCC[N+](C)(C)C)C(=O)N2[C@H]1c1ccc(O)cc1`, the relative growth is inactive: 1.01.
Then `CN(C)CC[C@H](CSc1ccccc1)Nc1ccc(S(=O)(=O)NC(=O)c2ccc(N3CCN(Cc4ccccc4-c4ccc(Cl)cc4)CC3)cc2)cc1[N+](=O)[O-]`, with inactive: 1.03.
Then `C[C@@H]1CN([C@H](C)CO)C(=O)c2cc(NS(=O)(=O)c3ccc(Cl)cc3)ccc2O[C@@H]1CN(C)Cc1ccc(C(F)(F)F)cc1`, with inactive: 1.04; and `COc1cccc(O)c1O`, with inactive: 0.984; and `O=C(C[C@H]1CC[C@@H](NC(=O)c2cnccn2)[C@@H](CO)O1)NCc1ccccc1F`, with inactive: 1.03.
Turning to `C[C@@H]1CN([C@H](C)CO)C(=O)c2cccc(NC(=O)C3CC3)c2O[C@H]1CN(C)Cc1ccc(C(=O)O)cc1`, the relative growth is inactive: 0.97.
Then `CC(C)(C)NC(=O)[C@@H]1CN(Cc2cccnc2)CCN1C[C@@H](O)C[C@@H](Cc1ccccc1)C(=O)N[C@@H]1c2ccccc2C[C@@H]1O`, with inactive: 0.993; and `C[C@H]1CN([C@@H](C)CO)C(=O)c2cccc(NS(=O)(=O)c3cn(C)cn3)c2O[C@H]1CN(C)C(=O)Nc1ccccc1`, with inactive: 1.03.
Then `COCCOC(=O)N1C(=O)[C@@]2(c3cc(C#CC4=CCCCC4)ccc31)[C@H](C(=O)N1CCCCCCC1)[C@H]1C(=O)O[C@H](c3ccccc3)[C@H](c3ccccc3)N1[C@@H]2c1ccc(OCCO)cc1`, with inactive: 1.06; and `CCCNC(=O)N1C[C@]2(CN(C2)S(=O)(=O)c2cccc(c2)OC)c2c(n(c3cc(ccc23)OC)C)[C@H]1CO`, with inactive: 0.984.
With `COc1ccc(C(N)=S)cn1`, the relative growth was inactive: 0.961.
With `CC=CC1=C(C(=O)O)N2C(=O)C(NC(=O)C(N)c3ccc(O)cc3)C2SC1` (stereo not given) the figure was inactive: 1.08; with `N#Cc1cc(F)c(N)c2[nH]cc(S(=O)(=O)c3ccc(NC(=O)c4cc(S(N)(=O)=O)cs4)cn3)c12`, inactive: 0.974; with `COc1cccc(CNC(=O)c2cc3c(c(-c4cccc(-c5cccc(C#N)c5)c4)n2)[C@@H](CCO)N([S@](=O)C(C)(C)C)C3)c1`, inactive: 1.
With `C[C@@H]1CN([C@H](C)CO)C(=O)c2cc(NC(=O)C3CCCCC3)ccc2O[C@@H](C)CCCCO[C@H]1CN(C)S(=O)(=O)c1ccc(Cl)cc1`, the relative growth is inactive: 1.03.
Then `C[C@H]1CCCCO[C@H](CN(C)C(=O)Nc2ccc(F)cc2)[C@@H](C)CN([C@@H](C)CO)C(=O)c2cc(NS(=O)(=O)c3ccccc3)ccc2O1`, with inactive: 1.01; and `C[C@@H]1CCCCO[C@@H](CN(C)S(=O)(=O)c2ccccc2)[C@@H](C)CN([C@@H](C)CO)C(=O)c2cc(NC(=O)C3CCCCC3)ccc2O1`, with inactive: 1.02; and `C[C@H]1CN([C@@H](C)CO)C(=O)c2c(c3ccccc3n2C)-c2ccccc2CO[C@@H]1CN(C)S(=O)(=O)c1cn(C)cn1`, with inactive: 1.01.
With `NC(=O)CC[C@@H](N)C(=O)O` the figure was inactive: 1.02.
Then `C[C@H]1CCCCO[C@@H](CN(C)S(=O)(=O)c2ccccc2)[C@@H](C)CN([C@@H](C)CO)C(=O)c2cc(NS(C)(=O)=O)ccc2O1`, with inactive: 1.01.
As for `Cc1ccc(S(=O)(=O)Nc2ccc3c(c2)C(=O)N([C@H](C)CO)C[C@H](C)[C@H](CN(C)C(=O)NC2CCCCC2)OCCCC[C@H](C)O3)cc1`, the relative growth is inactive: 0.989.
Then `C[C@@H]1CCCCO[C@@H](CN(C)S(=O)(=O)c2ccc(Cl)cc2)[C@@H](C)CN([C@H](C)CO)C(=O)c2cc(NC(=O)c3ccncc3)ccc2O1`, with inactive: 1.01.
